Measured values from paper PMC7718735.
Where a chain is given by its changes, count along the chain named. Results are given in words; binding and its absence hold for the method and conditions named. Some entries that bind do so weakly or less than the wild type. Values belong to the binder of their own block, whether it stands above or below them.

Experiments:
[1] = biological target: T1, Ima1 MYTH bait (S. pombe) (UniProt O13681); assay: two-hybrid; split-ubiquitin membrane yeast two-hybrid (MYTH) in S. cerevisiae; bait-Cub-LexA-VP16 strains mated with the arrayed Nub prey library, diploids spotted in quadruplicate on SD-leu-trp-ade-his with 25 mM 3-AT, imaged every 24 hr for 4 days; positive by a colony density cutoff
T1 sequence: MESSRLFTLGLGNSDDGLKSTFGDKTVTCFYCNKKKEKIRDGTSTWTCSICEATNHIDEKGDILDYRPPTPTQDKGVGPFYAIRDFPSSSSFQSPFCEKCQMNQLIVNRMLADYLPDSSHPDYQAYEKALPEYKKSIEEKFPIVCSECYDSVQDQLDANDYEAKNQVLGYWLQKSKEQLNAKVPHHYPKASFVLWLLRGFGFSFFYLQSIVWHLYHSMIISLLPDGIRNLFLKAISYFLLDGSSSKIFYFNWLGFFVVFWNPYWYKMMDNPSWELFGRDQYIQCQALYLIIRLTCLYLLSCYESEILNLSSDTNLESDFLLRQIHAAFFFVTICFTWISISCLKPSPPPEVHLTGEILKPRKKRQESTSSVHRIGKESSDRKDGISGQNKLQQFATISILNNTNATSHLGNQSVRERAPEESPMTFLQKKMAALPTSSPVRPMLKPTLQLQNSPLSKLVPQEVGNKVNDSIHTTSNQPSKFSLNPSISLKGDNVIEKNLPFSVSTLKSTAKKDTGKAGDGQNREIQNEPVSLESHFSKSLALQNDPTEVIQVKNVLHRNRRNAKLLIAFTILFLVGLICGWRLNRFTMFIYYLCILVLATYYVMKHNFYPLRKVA

[2] = biological target: T1, Ima1 MYTH bait (S. pombe); assay: two-hybrid; MYTH confirmation: bait and prey plasmids sequentially transformed into the haploid reporter strain SLJ5572; ten-fold dilution series on SD-leu-trp-ade-his + 25 mM 3-AT at 30°
[3] = biological target: T2, Lem2 MYTH bait (S. pombe) (UniProt Q10109); assay: two-hybrid; split-ubiquitin membrane yeast two-hybrid (MYTH) in S. cerevisiae; bait-Cub-LexA-VP16 strains mated with the arrayed Nub prey library, diploids spotted in quadruplicate on SD-leu-trp-ade-his with 25 mM 3-AT, imaged every 24 hr for 4 days; positive by a colony density cutoff
T2 sequence: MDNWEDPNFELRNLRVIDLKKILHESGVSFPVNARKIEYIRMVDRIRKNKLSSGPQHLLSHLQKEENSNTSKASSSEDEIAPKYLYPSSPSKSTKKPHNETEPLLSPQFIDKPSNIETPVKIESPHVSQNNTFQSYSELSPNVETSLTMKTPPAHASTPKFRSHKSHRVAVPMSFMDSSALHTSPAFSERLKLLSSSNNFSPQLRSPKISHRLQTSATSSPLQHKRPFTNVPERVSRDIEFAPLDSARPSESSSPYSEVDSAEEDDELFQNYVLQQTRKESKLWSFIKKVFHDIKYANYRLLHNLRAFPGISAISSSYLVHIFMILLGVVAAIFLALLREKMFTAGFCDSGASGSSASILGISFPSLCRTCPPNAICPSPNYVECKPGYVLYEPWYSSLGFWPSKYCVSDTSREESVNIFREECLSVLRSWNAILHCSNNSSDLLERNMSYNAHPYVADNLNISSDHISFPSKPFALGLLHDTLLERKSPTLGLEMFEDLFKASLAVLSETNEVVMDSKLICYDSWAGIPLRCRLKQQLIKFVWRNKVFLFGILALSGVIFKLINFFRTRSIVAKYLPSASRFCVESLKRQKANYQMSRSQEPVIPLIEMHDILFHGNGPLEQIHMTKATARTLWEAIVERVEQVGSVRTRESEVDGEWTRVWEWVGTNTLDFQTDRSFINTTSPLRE

[4] = biological target: T2, Lem2 MYTH bait (S. pombe); assay: two-hybrid; MYTH confirmation: bait and prey plasmids sequentially transformed into the haploid reporter strain SLJ5572; ten-fold dilution series on SD-leu-trp-ade-his + 25 mM 3-AT at 30°
[5] = biological target: T3, Cut11 MYTH bait (wild type) (S. pombe) (UniProt O13961); assay: two-hybrid; split-ubiquitin membrane yeast two-hybrid (MYTH) in S. cerevisiae; bait-Cub-LexA-VP16 strains mated with the arrayed Nub prey library, diploids spotted in quadruplicate on SD-leu-trp-ade-his with 25 mM 3-AT, imaged every 24 hr for 4 days; positive by a colony density cutoff
T3 sequence: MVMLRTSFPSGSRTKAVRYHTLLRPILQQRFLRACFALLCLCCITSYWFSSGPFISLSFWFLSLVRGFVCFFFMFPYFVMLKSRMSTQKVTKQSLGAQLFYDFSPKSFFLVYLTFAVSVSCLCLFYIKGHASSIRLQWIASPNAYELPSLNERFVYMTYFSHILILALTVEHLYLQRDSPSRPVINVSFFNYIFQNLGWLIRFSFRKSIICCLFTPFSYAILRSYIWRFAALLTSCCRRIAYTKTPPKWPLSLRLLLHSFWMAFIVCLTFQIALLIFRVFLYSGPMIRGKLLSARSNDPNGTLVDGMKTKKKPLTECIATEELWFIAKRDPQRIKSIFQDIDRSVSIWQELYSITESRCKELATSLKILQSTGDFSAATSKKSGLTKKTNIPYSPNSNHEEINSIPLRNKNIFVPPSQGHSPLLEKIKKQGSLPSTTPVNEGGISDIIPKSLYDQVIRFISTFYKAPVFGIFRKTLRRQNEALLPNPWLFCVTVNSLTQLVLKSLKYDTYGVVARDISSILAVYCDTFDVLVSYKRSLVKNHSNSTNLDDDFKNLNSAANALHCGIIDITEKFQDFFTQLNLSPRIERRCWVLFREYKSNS

[6] = biological target: T4, Cut11 C525R MYTH bait (S. pombe) (UniProt O13961); assay: as above
T4 sequence: T3 sequence with C525R

[7] = biological target: T5, Cut11 L521F MYTH bait (S. pombe) (UniProt O13961); assay: as above
T5 sequence: T3 sequence with L521F

[8] = biological target: T6, Cut11 T498I MYTH bait (S. pombe) (UniProt O13961); assay: as above
T6 sequence: T3 sequence with T498I

binding [1]: binds
binding [2]: binds
B1: Nvj2 MYTH prey (protein, UniProt O94464 1-779)
chain: MFFAFLITYLLGGVTFLPFILFIYLLTRPTHKSEELRIIEPNNDCLTKLDKDIRIQGWIRVTTKFLQGKSGSVKVQEIPQDQLPKSSSDNAVTDRKTISPSGINNQYVIRNPKDVYYATVQAGKLHLFDPVKTSELLHVINLHEYLVVFYPGTVTENELFSNRNAIFLKYPAVSHKKESSTKSLLNKDLYVYGRTPSNKEDWNYALLSYSKISPAIKPLEAPIDFDYASVHHNLTALSSPDTDWLNAFIGRIFLGIHKTEGFKSLVVEKLTKKLSRIKTPGIMTDVKVIDVDVGEAIPTVNGLKFESLSNGGELIVSADIWYEGDCSFKAETTANIKFGSHFPSKTVPLALVIRLTHVSGKVRLLIKPPPSNRVWYAFYEKPRLHLIVEPMVARKQLTNNYLINFITQKLVELVHETIVMPNMNDLAFFIDNEAPIKGGLWDIELFRAPTIQKPAEKDAKAERKKSGLSSSTSEESLNRHISKRSSNSNDTAPSSHIIADKNLEPTSNIQLKKNPDGNLVETSELSDSDENSVLSNKSSTLSKKVVENTSPLKYTHSASKSFIGEVQDSLQALKTKAHKPRSIGGDSSQTTLSETTKKYGSVAKKSFFQGVSDAKSFVKKIKSTYIDDSSSNSPSDIESNYSADDNEISKSKAQNAIDFNVTNTHSPSRSISSEKSYKAAERGQQDKHNDVLVDLNPNVEAEKSNPHSNSQKTSKNDMSRNQRNKYAKEIMTGQPTLHPQGQLPIQNVEQRATHKPLPRPPVQVETREPVRPVPPIPKL

binding [3]: binds weakly
binding [4]: binds
B2: Tvp15 MYTH prey (protein, UniProt O14223 1-132)
chain: MDKTKMFSAINLGVGGIFVLSGFIKLFSFSFVNALLALFIIVFGLGTIGLEKEIPPIAIKYGSFMFSFLGRGFFYAFMGTLLFSYSGFTSFLGFLVLLAGIAYCGANYVAGLQDYAPRSMRDNDWDDNVDEV

binding [5]: binds
binding [6]: binds
binding [7]: binds
binding [8]: binds
binding [1]: no binding
B3: Ima1 MYTH prey (protein, UniProt O13681 1-615)
chain: T1 sequence
